# Measurements published in PMC4336329 (PLoS ONE, 2015).
# Hit rate of the full screen: of about 310,000 compounds, about 2,200 (0.71%) showed an effect of 50% or more. Effects have a minus sign here. The list shows a part of the results.
# Biological target: human ether-à-go-go-related gene (hERG) potassium channel (human, UniProt Q12809)
# Experiment: primary screen, population patch clamp on CHO cells stably expressing hERG
# human ether-à-go-go-related gene (hERG) potassium channel, sequence (Q12809 whole entry, looked up): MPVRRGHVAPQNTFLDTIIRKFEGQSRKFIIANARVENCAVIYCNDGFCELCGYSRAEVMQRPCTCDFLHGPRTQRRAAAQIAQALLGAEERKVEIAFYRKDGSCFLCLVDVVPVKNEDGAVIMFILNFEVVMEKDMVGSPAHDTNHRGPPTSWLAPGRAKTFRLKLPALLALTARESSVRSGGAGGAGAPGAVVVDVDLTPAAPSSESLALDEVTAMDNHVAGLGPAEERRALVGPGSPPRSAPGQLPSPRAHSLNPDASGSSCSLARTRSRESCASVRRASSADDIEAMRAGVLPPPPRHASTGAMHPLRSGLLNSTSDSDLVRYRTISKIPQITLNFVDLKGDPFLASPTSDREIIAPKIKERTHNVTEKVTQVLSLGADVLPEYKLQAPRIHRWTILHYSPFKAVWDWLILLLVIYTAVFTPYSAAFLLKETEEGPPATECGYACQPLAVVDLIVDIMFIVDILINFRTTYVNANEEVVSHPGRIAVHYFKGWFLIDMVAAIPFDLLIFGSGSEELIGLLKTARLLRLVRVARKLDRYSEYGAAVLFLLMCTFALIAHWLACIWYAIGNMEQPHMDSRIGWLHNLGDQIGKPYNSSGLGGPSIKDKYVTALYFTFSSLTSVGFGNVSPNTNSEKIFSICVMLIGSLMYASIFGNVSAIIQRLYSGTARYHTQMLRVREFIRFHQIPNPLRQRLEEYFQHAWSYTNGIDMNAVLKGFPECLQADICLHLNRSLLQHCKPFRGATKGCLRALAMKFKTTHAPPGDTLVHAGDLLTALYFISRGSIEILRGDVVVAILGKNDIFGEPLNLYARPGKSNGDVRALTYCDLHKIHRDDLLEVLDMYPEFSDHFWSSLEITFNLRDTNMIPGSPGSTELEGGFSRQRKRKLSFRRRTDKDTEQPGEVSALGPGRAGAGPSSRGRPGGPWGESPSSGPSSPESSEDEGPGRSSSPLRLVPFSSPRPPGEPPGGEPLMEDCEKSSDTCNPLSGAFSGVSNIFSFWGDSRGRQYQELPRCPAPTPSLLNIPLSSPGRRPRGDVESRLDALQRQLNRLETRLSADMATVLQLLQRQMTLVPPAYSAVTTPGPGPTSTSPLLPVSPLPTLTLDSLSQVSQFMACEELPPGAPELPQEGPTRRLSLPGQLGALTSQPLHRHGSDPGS
row,Compound,"hERG current change (%, negative = inhibition) at 1uM [%]"
1,COc1cccc(CNC(=O)CCCc2c[nH]c3ccccc23)c1,-0.935
2,CCN(Cc1ccccc1)S(=O)(=O)c1cc(C(=O)c2c(N)n(C)c(=O)n(C)c2=O)ccc1OC,5.77
3,CCc1nnc(NC(=O)c2ccc(Br)c(S(=O)(=O)N3CCOCC3)c2)s1,20
4,O=C(O)CCC(=O)N1CCc2cc(S(=O)(=O)N3CCC(Cc4ccccc4)CC3)ccc21,9.88
5,COc1ccc(Cn2c(CCC(=O)Nc3ccc(CC#N)cc3)nc3cccnc32)cc1,1.71
6,Cc1ccc(NC2=C(Cl)C(=O)OC2OC(=O)c2ccc(C)cc2)cc1 (stereo not drawn),0.499
7,CC(C)c1c(O)nc(SCc2ccc(F)cc2)[nH]c1=O,18.5
8,COC(=O)CN1C(=O)C(C)(C)Oc2ccc(C(=O)NC3CC3)cc21,2.52
9,COc1ccccc1NC(=O)COC(=O)c1ccc2c(c1)OCCO2,9.82
10,COC(=O)C1=CN(Cc2ccc(C)cc2)C=C(C(=O)OC)C1c1cc(OC)c(OC)c(OC)c1,-2.32
11,CCOC(=O)c1cncc(C#CCO)c1,6.47
12,COc1ccc(CNC(=O)COC(=O)c2ccc(C)c(S(=O)(=O)N3CCOCC3)c2)cc1OC,7.56
13,Cc1ccc(/C(O)=C/C(=O)C(=O)NC23CC4CC(CC(C4)C2)C3)cc1,5.19
14,CCC(NC(=S)NC1CCCCC1)c1ccc(C(C)C)cc1 (stereo not drawn),11.3
15,CCOC(=O)/C(=C/C=C1\Sc2cc(OCC)c(OCC)cc2N1CC)C(C)=O,9.18
16,COc1ccc(-c2nnc(SCc3nc4ccccc4s3)n2C(C)C)cc1,-16.1
17,COc1ccc(S(=O)(=O)c2c(N)n(Cc3ccco3)c3nc4ccccc4nc23)cc1,-2.24
18,c1cncc(-c2nn[nH]n2)c1,1.97
19,COC(=O)C1=C(C)NC(=O)CC1c1ccc(C(=O)OC)cc1 (stereo not drawn),11.8
20,CCCCNC(=O)c1cn(C)c2ccc(S(=O)(=O)N3CCCC3)cc2c1=O,14.8
21,O=C(CSc1nnc(C2CC2)n1-c1ccccc1)NCCc1ccccc1,9.1
22,CCC1CCCCN1Cc1ccc(CNC(=O)CCc2nnc3ccc(N4CCCCC4)nn23)o1 (stereo not drawn),15.6
23,c1cnc2ccc(C(c3nnnn3C3CCCC3)N3CCSCC3)cc2c1 (stereo not drawn),11.3
24,COc1ccc(CCN2CCCC(CN(C)C(=O)c3ccoc3)C2)cc1 (stereo not drawn),-32.6
